Experimental data as given in a collection of fitness landscapes (doi:10.1016/j.celrep.2020.107928).
Whole data set: some 81,000 sequences, median “one-hybrid fitness for binding NBS DNA” near -0.1, cut for the highest 2% near 0.36. Some of the results follow.

B1: Caulobacter ParB omega fusion; a variant is named by its letters at X, in order, B8GW30 (parent)
chain: MESVVVGEPGMSEGRRGLGRGLSALLGEVDAAPAQAPGEQLGGSREAPIEILQRNPDQPRRTFREEDLEDLSNSIREKGVLQPILVRPSPDTAGEYQIVAGERAWRAAQRAGLKTVPIMVRELDDLAVLEIGIIENVQRADLNVLEEALSYKVLMEKFERTQENIAQTIGKSXSHVANXMRLLXLPDEVQSYLVSGELTAXHARAIAAAADPVALAKQIIEGGLSVRETEALARKAPNLSAGKSKGGRPPRVKDTDTQALESDLSSVLGLDVSIDHRGSTGTLTITYATLEQLDDLCNRLTRGI

Variants of: B1
Experiment: one-hybrid fitness for binding NBS DNA (the Noc-binding site; scaled: cognate 1, non-cognate 0); higher = stronger binding
Settings: with NBS DNA site
Outline: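 In E. coli USO, a HIS3 reporter with its site placed 19 bp from the promoter was used to select Caulobacter ParB variants randomised at four specificity codons. Growth lasted 48 hours at 37°C on histidine-free M9 containing 0.1 mM IPTG and 5 mM 3-AT. Fitness was taken as the log change in variant-to-wild-type read ratio from Illumina sequencing of pre- and post-selection plasmids, rescaled between the non-cognate and cognate sites.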

| Variant | one-hybrid fitness for binding NBS DNA |
| --- | --- |
| TRKP | ≤ 0.2 |
| WLAC | ≤ 0.2 |
| VDFG | ≤ 0.2 |
| PCMD | ≤ 0.2 |
| PIRM | ≤ 0.2 |
| DVRK | ≤ 0.2 |
| HIVS | ≤ 0.2 |
| SRWG | ≤ 0.2 |
| PDPA | ≤ 0.2 |
| LSGP | ≤ 0.2 |
| YCLT | ≤ 0.2 |
| RPPC | ≤ 0.2 |
| KSGF | ≤ 0.2 |
| MCPG | ≤ 0.2 |
| QKDD | ≤ 0.2 |
| HFCS | ≤ 0.2 |
| GENS | ≤ 0.2 |
| VDGT | ≤ 0.2 |
| TRHY | ≤ 0.2 |
| NQYV | ≤ 0.2 |
| QARA | 0.519 |
| TSQF | ≤ 0.2 |
| VDFY | ≤ 0.2 |
| VMCR | ≤ 0.2 |
| HLYR | ≤ 0.2 |

| Variant | one-hybrid fitness for binding NBS DNA |
| --- | --- |
| GEIG | ≤ 0.2 |
| SPSW | ≤ 0.2 |
| PTAT | ≤ 0.2 |
| DCPG | ≤ 0.2 |
| VPRL | ≤ 0.2 |
| AILI | ≤ 0.2 |
| MSTC | ≤ 0.2 |
| TKKA | ≤ 0.2 |
| HDNL | ≤ 0.2 |
| TSDR | ≤ 0.2 |
| LLPL | ≤ 0.2 |
| NNAT | ≤ 0.2 |
| GVMT | ≤ 0.2 |
| TLAC | ≤ 0.2 |
| CRKV | ≤ 0.2 |
| RNQY | ≤ 0.2 |
| RQQM | ≤ 0.2 |
| EKHL | ≤ 0.2 |
| RWMN | ≤ 0.2 |
| WHNT | ≤ 0.2 |
| YQPE | ≤ 0.2 |
| EWIS | ≤ 0.2 |
| KQVL | ≤ 0.2 |
| FHML | ≤ 0.2 |
| TPIS | ≤ 0.2 |

| Variant | one-hybrid fitness for binding NBS DNA |
| --- | --- |
| KTCR | 0.212 |
| LNPC | ≤ 0.2 |
| SHNI | ≤ 0.2 |
| PADT | ≤ 0.2 |
| GTHK | ≤ 0.2 |
| CMTS | ≤ 0.2 |
| GYNK | ≤ 0.2 |
| EWPA | ≤ 0.2 |
| AKPP | ≤ 0.2 |
| VSIC | ≤ 0.2 |
| FRDM | ≤ 0.2 |
| PPRS | ≤ 0.2 |
| DEYI | ≤ 0.2 |
| WSPW | ≤ 0.2 |
| SEMC | ≤ 0.2 |
| NLHC | ≤ 0.2 |
| QKAC | ≤ 0.2 |
| RRYN | 0.26 |
| GGLS | ≤ 0.2 |
| DSRF | ≤ 0.2 |
| TPNL | ≤ 0.2 |
| TSGD | ≤ 0.2 |
| HLTR | ≤ 0.2 |
| PDSQ | ≤ 0.2 |
| HIKR | ≤ 0.2 |

| Variant | one-hybrid fitness for binding NBS DNA |
| --- | --- |
| MGMD | ≤ 0.2 |
| GQNL | ≤ 0.2 |
| HYHR | ≤ 0.2 |
| PCNC | ≤ 0.2 |
| ERCG | ≤ 0.2 |
| QHKT | 0.732 |
| NHHT | ≤ 0.2 |
| NKMT | ≤ 0.2 |
| QHNM | ≤ 0.2 |
| WHFR | ≤ 0.2 |
| LAFP | ≤ 0.2 |
| SIPT | ≤ 0.2 |
| NRNG | ≤ 0.2 |
| IQNR | ≤ 0.2 |
| SKYR | ≤ 0.2 |
| PNID | ≤ 0.2 |
| PVSV | ≤ 0.2 |
| GPES | ≤ 0.2 |
| QGMF | ≤ 0.2 |
| VGRY | ≤ 0.2 |
| LYKP | ≤ 0.2 |
| ADMS | ≤ 0.2 |
| CVVE | ≤ 0.2 |
| QRNR | 1.03 |
| RRLM | 0.228 |

| Variant | one-hybrid fitness for binding NBS DNA |
| --- | --- |
| QEKF | ≤ 0.2 |
| CTRI | ≤ 0.2 |
| DETA | ≤ 0.2 |
| QNPP | ≤ 0.2 |
| CWHG | ≤ 0.2 |
| AISF | ≤ 0.2 |
| RGNE | ≤ 0.2 |
| QMKE | 0.215 |
| QPEL | ≤ 0.2 |
| PWPK | ≤ 0.2 |
| RDVD | ≤ 0.2 |
| RPAV | ≤ 0.2 |
| SNMM | ≤ 0.2 |
| ALEV | ≤ 0.2 |
| SSAC | ≤ 0.2 |
| IFVR | ≤ 0.2 |
| VVQS | ≤ 0.2 |
| QHMA | ≤ 0.2 |
| RYTF | ≤ 0.2 |
| LVIG | ≤ 0.2 |
| ENIM | ≤ 0.2 |
| LVIS | ≤ 0.2 |
| VHHF | ≤ 0.2 |
| CMPQ | ≤ 0.2 |
| GKHR | ≤ 0.2 |

| Variant | one-hybrid fitness for binding NBS DNA |
| --- | --- |
| LKQI | ≤ 0.2 |
| VTTE | ≤ 0.2 |
| QLEV | ≤ 0.2 |
| REKW | ≤ 0.2 |
| THFS | ≤ 0.2 |
| HHAV | ≤ 0.2 |
| IFMS | ≤ 0.2 |
| QNTG | ≤ 0.2 |
| LRYE | ≤ 0.2 |
| HQAK | ≤ 0.2 |
| RWDY | ≤ 0.2 |
| RMEQ | ≤ 0.2 |
| FAIA | ≤ 0.2 |
| DMNR | ≤ 0.2 |
| QLPF | ≤ 0.2 |
| LSGC | ≤ 0.2 |
| SYST | ≤ 0.2 |
| GYLR | ≤ 0.2 |
| RSFN | ≤ 0.2 |
| SQAL | ≤ 0.2 |
| QCKW | 0.324 |
| EWPV | ≤ 0.2 |
| GYTC | ≤ 0.2 |
| SLKC | ≤ 0.2 |
| HMGL | ≤ 0.2 |

| Variant | one-hybrid fitness for binding NBS DNA |
| --- | --- |
| YKYG | ≤ 0.2 |
| IIPS | ≤ 0.2 |
| QMNS | 0.458 |
| MGRT | ≤ 0.2 |
| SYIF | ≤ 0.2 |
| LTYS | ≤ 0.2 |
| NPED | ≤ 0.2 |
| TWCR | ≤ 0.2 |
| PALK | ≤ 0.2 |
| QQCW | ≤ 0.2 |
| TFLS | ≤ 0.2 |
| AKRY | ≤ 0.2 |
| LSTN | ≤ 0.2 |
| LTKG | ≤ 0.2 |
| HVHG | ≤ 0.2 |
| IRCG | ≤ 0.2 |
| RHDK | ≤ 0.2 |
| AGYR | ≤ 0.2 |
| TRQW | ≤ 0.2 |
| HNYP | ≤ 0.2 |
| LRTN | ≤ 0.2 |
| FYGR | 0.203 |
| TWSV | ≤ 0.2 |
| INHF | ≤ 0.2 |
| RIAA | ≤ 0.2 |

| Variant | one-hybrid fitness for binding NBS DNA |
| --- | --- |
| QKIS | 0.278 |
| CPTP | ≤ 0.2 |
| WCNV | ≤ 0.2 |
| DVTF | ≤ 0.2 |
| FLKD | ≤ 0.2 |
| LYPQ | ≤ 0.2 |
| YGFC | ≤ 0.2 |
| QIGD | ≤ 0.2 |
| QTSW | ≤ 0.2 |
| AARW | ≤ 0.2 |
| QYVI | ≤ 0.2 |
| RHES | 0.203 |
| GLMC | ≤ 0.2 |
| TNSH | ≤ 0.2 |
| RTQA | 0.294 |
| RSIM | ≤ 0.2 |
| INTR | ≤ 0.2 |
| FRTR | ≤ 0.2 |
| RMCK | ≤ 0.2 |
| DTKH | ≤ 0.2 |
